Target: recombinant human histone H3.1 (human, UniProt P68431)
Test: pull-down

binding result: binds
B1: RAGE^[…]-His-FLAG (extracellular part of RAGE) (domain or fragment)
chain: not shown

Reference: article doi:10.1101/2024.09.03.610921 (bioRxiv, 2024)
